Not every entry of the source has a single result; some have several. This list holds those alone. An entry can have further records. Results that share an entry appear to be repeats on other runs, samples or individuals. Brackets tell where a record comes from. Letters count within one entry.
Test system: USA300
Experiment: In vivo skin wound infection with USA300
Parameters: species or system ICR mice
Settings: topical 100 mM propionic acid
Description: ICR mice (2-3-month-old female) were anesthetized by isoflurane. In each experiment, there were five mice per group. A wound 5 mm in length was made on the dorsal skin after shaving with electrical clippers. Once the skin wound was created, 5 μl of propionic acid (100 mM), PBS (pH 7.1) or PBS (pH 3.5) was applied topically to the wounded areas. The wounds were left uncovered throughout the experimental period. For bacterial infection, USA300 (2×10^6 CFU in PBS) was applied topically to the wounded areas 10 min after application of propionic acid or PBS. For the measurement of the extent of wound closure, a transparent parafilm was put on the top of the wounded skin. The wound area was marked on the parafilm by drawing an area which covered the whole skin wound. The lesion size was measured daily for 8 days was calculated using the ImageJ software [National Institutes of Health (NIH), Bethesda, Md., USA] and expressed as mm^2. Student's t-test was used to determine the significance of the differences between groups of the PBS (pH 7.1)- and propionic acid-treated mice as well as the PBS (pH 7.1)- and PBS (pH 3.5)-treated mice. […]
ICR mice (2-3 month-old females; Harlan Labs, Placentia, Calif., USA) were anesthetized by isoflurane. […] The lesion size (mm^2) was measured daily for 8 days then calculated with ImageJ software (NIH, Bethesda, Md., USA). […]

SMILES: CCC(=O)O [propionic acid]
- size of USA300-infected skin lesions on Day 1: 3.2±0.8 mM [passage A] and 3.2±0.8 mm^2 [passage B]

Reference: patent publication US11590092B2, “Skin probiotic” (The Regents of the University of California, priority 2014, dated 2023)
